Experimental data published in publication PMC6197184.
No constants are given. Whether binding was seen depends on the method and setting. Binding seen in cells or lysates may run through a third protein. Some entries that bind do so weakly or less than the wild type. For some assays here: Tags and fused reporters may be left off the sequences shown.

By UniProt entry, the sequences of proteins in these tests, tags left out. Residues count along the entry.
UniProt Q96EP0: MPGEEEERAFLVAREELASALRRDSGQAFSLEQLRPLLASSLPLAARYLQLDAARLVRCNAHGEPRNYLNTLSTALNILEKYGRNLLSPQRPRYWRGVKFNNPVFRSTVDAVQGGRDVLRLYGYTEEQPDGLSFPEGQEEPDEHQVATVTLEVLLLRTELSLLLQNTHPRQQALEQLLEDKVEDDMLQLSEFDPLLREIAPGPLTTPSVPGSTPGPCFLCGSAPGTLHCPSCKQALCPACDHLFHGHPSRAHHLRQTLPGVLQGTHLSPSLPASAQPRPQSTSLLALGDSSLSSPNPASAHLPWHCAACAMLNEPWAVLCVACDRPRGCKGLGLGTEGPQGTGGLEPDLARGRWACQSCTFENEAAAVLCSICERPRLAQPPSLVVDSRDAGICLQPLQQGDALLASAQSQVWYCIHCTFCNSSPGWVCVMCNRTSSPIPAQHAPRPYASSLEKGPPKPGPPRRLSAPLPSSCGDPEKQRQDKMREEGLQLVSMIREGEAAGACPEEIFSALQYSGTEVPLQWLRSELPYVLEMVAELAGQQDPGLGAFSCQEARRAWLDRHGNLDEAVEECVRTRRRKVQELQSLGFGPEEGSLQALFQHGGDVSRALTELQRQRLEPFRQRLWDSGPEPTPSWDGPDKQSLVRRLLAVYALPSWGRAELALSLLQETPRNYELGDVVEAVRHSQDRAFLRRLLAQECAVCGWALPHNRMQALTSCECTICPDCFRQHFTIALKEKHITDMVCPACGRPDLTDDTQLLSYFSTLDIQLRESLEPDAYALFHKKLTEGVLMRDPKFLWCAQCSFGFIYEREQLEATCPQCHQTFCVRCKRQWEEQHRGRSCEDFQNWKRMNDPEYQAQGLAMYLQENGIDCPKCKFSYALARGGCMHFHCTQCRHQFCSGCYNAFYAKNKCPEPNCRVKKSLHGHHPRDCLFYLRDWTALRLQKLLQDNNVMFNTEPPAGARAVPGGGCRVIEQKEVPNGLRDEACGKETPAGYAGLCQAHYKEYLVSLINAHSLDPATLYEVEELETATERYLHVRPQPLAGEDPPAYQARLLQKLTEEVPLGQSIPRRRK
UniProt P19838, residues 1-433: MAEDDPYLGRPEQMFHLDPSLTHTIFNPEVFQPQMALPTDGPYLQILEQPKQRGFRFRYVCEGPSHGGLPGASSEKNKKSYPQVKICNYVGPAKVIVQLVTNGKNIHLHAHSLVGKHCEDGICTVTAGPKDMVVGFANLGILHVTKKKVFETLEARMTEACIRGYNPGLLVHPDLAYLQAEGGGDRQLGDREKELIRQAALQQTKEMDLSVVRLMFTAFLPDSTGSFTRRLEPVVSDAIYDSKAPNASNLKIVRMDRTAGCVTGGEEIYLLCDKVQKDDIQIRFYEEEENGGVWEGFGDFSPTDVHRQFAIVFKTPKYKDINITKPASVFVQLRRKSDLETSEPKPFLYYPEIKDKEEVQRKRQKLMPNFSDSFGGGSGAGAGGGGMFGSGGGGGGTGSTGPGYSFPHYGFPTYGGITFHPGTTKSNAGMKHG
UniProt Q04206: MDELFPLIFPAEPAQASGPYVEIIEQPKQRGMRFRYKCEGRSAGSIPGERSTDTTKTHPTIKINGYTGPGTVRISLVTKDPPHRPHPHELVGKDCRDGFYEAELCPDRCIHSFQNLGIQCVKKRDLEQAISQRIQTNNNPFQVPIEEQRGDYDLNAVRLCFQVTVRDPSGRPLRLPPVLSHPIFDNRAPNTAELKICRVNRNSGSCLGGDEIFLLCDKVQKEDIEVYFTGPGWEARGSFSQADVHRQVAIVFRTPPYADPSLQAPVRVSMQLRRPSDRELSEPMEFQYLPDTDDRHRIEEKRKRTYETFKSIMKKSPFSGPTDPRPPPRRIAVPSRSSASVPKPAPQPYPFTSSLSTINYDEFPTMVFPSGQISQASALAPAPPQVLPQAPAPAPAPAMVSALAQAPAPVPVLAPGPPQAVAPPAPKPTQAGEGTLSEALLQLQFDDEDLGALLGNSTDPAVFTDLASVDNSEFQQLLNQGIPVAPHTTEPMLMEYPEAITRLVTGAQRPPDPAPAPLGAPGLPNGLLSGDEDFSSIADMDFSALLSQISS

Key:
[1] = target: T1, GST-TAB2 FL (GST-fused full-length TAB2) (UniProt Q9NYJ8); experiment: pull-down; GST or GST fusion proteins from E. coli on Glutathione Sepharose 4B incubated with lysates of transfected 293T cells at 4 °C overnight; washed with PBS or IP buffer; immunoblot; only the target purified
T1 sequence: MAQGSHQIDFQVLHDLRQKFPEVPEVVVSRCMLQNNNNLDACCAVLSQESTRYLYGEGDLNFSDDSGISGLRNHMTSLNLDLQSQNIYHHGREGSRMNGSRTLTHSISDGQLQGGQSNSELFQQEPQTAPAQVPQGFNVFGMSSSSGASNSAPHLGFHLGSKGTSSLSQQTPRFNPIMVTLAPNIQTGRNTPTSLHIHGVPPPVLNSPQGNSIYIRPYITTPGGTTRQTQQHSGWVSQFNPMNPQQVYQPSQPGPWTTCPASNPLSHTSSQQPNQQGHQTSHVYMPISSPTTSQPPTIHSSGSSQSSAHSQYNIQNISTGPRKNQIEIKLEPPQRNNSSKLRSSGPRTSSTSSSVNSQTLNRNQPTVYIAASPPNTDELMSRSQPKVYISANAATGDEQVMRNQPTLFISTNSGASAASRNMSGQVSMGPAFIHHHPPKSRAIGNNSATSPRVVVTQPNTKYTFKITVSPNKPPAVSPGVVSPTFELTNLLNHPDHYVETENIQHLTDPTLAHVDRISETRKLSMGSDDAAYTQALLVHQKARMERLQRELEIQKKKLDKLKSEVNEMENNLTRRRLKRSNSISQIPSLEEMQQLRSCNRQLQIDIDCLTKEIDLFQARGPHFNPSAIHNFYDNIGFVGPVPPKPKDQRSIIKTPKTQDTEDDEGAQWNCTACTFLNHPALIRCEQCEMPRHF

[2] = target: T2, Flag-TAB2 (full-length TAK1-binding protein 2) (UniProt Q9NYJ8); experiment: co-IP; 293T cells co-transfected with tagged proteins; lysates immunoprecipitated with tag antibodies and protein G beads at 4 °C overnight, washed with IP buffer (50 mM Tris-HCl pH 7.4, 150 mM NaCl, 1% Nonidet P40), immunoblot; reciprocal; competition co-IP with CYPJ overexpression
T2 sequence: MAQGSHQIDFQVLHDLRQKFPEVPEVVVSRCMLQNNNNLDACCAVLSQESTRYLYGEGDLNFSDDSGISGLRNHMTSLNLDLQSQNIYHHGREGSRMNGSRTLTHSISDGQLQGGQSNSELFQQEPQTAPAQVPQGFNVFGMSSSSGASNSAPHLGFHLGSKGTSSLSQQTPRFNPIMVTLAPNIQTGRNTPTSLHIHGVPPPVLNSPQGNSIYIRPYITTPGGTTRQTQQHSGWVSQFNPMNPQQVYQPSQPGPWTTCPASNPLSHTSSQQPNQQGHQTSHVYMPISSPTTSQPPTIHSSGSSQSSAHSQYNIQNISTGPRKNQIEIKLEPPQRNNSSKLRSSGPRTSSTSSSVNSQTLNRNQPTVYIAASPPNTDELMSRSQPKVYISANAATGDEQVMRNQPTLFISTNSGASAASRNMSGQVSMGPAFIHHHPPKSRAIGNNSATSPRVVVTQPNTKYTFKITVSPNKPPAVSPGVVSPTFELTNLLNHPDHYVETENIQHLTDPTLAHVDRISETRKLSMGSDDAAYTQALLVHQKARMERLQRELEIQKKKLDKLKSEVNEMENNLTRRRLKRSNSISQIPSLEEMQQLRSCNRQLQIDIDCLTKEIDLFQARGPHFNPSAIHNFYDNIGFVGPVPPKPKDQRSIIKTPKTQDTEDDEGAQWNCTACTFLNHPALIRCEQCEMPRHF

[3] = target: T3, Flag-TAB3 (UniProt Q8N5C8); experiment: as above
T3 sequence: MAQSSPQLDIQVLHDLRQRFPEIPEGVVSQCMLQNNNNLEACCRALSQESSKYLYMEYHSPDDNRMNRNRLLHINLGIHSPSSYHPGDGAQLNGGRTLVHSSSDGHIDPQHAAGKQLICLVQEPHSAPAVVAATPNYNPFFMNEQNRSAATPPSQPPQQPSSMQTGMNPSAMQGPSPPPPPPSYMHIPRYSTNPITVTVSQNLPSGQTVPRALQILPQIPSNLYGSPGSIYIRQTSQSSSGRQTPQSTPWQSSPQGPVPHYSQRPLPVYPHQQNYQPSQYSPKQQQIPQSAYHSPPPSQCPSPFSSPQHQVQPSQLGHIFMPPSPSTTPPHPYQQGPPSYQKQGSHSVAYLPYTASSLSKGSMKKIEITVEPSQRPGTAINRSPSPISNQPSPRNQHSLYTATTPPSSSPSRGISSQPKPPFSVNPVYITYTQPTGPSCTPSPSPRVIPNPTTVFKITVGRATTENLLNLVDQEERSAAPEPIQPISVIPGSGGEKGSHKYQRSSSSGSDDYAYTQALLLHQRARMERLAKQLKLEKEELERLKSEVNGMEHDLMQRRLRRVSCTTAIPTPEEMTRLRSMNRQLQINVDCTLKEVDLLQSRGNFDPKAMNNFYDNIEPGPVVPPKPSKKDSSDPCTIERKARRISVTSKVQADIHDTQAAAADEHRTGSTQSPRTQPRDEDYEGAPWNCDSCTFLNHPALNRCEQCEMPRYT

[4] = target: HOIP (UniProt Q96EP0); experiment: as above
[5] = target: T4, TAK1 (transforming growth factor β-activated kinase 1) (UniProt O43318); experiment: as above
T4 sequence: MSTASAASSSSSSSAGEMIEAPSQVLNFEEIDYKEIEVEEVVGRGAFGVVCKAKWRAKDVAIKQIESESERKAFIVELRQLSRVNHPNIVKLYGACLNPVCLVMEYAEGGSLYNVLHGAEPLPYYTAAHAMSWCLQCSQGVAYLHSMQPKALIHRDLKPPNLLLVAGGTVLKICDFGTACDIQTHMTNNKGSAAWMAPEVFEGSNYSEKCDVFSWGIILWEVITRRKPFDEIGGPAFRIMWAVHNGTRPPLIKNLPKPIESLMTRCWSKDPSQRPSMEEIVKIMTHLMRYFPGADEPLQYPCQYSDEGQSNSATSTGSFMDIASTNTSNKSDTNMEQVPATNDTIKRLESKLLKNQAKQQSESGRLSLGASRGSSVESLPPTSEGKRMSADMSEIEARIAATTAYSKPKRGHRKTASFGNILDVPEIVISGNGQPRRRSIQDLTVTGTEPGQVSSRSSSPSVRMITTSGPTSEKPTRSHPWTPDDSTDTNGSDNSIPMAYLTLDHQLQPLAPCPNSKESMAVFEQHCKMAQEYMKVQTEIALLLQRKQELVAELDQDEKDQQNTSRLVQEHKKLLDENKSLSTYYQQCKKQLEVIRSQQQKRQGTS

[6] = target: T5, TRAF2 (UniProt Q12933); experiment: as above
T5 sequence: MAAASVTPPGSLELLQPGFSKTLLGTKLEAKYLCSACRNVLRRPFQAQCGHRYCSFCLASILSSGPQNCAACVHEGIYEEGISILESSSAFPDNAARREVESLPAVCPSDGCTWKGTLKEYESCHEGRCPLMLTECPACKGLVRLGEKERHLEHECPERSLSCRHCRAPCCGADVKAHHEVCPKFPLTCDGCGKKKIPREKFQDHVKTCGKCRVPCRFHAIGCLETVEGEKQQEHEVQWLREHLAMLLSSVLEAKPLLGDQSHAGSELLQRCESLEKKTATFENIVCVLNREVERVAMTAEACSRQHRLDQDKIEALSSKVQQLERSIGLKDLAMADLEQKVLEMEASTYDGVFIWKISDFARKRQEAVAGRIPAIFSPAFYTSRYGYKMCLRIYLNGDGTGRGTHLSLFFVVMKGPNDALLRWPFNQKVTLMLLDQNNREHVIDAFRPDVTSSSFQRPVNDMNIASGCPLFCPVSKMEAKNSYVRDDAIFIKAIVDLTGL

[7] = target: p50 (UniProt P19838); experiment: as above
[8] = target: p65 (UniProt Q04206); experiment: as above
[9] = target: T2, Flag-TAB2 (full-length TAK1-binding protein 2); experiment: co-IP; ubiquitin assay: 293T cells (WT or CYPJ-knockout) transfected with HA-Ub or its mutants and Flag-TAB2/3 or mutants, with or without Myc-CYPJ; IP with anti-Flag antibody and protein G beads at 4 °C overnight; polyubiquitin detected with anti-HA
[10] = target: T3, Flag-TAB3; experiment: as above
[11] = target: T6, endogenous TAB2 (human (endogenous in 293T)) (UniProt Q9NYJ8); experiment: co-IP; endogenous proteins; lysates of 293T cells (WT or CYPJ-knockout) treated with or without TNF for different times; IP with anti-TAB2, anti-TAB3 or control IgG; immunoblot with anti-CYPJ or anti-K63 Ub
T6 sequence: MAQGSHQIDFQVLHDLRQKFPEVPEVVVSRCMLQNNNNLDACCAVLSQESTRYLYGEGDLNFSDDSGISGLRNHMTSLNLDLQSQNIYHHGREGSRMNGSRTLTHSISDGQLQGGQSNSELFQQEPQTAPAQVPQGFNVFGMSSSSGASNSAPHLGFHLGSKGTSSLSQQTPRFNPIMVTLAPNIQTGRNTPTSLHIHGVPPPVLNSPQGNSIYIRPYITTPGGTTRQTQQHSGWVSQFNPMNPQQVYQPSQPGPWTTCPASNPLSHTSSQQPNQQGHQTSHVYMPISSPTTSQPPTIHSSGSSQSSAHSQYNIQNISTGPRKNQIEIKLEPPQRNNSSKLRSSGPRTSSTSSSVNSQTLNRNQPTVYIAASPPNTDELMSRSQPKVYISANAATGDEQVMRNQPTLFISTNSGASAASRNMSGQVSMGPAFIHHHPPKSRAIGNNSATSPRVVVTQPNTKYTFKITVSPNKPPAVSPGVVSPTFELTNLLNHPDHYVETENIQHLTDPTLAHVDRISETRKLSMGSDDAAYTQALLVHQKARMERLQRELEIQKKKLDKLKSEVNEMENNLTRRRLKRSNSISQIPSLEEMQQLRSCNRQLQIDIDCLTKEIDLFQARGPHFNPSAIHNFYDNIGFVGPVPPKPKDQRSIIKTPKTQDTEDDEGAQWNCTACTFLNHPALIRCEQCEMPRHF

[12] = target: T7, endogenous TAB3 (human (endogenous in 293T)) (UniProt Q8N5C8); experiment: as above
T7 sequence: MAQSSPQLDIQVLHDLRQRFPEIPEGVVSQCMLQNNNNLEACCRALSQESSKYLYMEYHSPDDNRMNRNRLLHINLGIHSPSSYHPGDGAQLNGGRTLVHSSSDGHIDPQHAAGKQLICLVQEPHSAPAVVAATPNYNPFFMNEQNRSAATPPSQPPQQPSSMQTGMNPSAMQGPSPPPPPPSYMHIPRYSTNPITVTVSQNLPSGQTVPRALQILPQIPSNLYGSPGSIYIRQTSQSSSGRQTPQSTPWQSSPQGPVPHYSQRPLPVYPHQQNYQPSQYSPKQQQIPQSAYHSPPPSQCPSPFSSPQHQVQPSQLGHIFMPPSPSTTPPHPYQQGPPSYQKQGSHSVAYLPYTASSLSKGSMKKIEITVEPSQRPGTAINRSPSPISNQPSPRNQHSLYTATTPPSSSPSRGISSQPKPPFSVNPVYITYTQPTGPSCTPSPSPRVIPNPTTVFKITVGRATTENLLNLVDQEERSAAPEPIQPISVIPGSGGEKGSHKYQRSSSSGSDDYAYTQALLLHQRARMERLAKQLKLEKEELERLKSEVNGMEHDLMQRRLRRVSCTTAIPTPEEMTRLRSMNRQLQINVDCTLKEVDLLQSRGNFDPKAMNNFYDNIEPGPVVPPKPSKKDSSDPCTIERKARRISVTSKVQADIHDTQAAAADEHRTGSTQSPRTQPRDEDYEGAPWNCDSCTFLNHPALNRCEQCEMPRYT

B1: HA-CYPJ (HA-tagged full-length cyclophilin J) (protein, UniProt Q9H2H8 1-161)
chain: MSVTLHTDVGDIKIEVFCERTPKTCENFLALCASNYYNGCIFHRNIKGFMVQTGDPTGTGRGGNSIWGKKFEDEYSEYLKHNVRGVVSMANNGPNTNGSQFFITYGKQPHLDMKYTVFGKVIDGLETLDELEKLPVNEKTYRPLNDVHIKDITIHANPFAQ
- binding [1]: binds
- binding [2]: binds
- binding [3]: binds
- binding [4]: binds
- binding [5]: no binding
- binding [6]: no binding
- binding [7]: no binding
- binding [8]: no binding

B2: Myc-CYPJ (protein, UniProt Q9H2H8 1-161)
chain: MSVTLHTDVGDIKIEVFCERTPKTCENFLALCASNYYNGCIFHRNIKGFMVQTGDPTGTGRGGNSIWGKKFEDEYSEYLKHNVRGVVSMANNGPNTNGSQFFITYGKQPHLDMKYTVFGKVIDGLETLDELEKLPVNEKTYRPLNDVHIKDITIHANPFAQ
- binding [9]: binds
- binding [10]: binds

B3: TAK1 (transforming growth factor β-activated kinase 1) (protein, UniProt O43318 1-606)
chain: MSTASAASSSSSSSAGEMIEAPSQVLNFEEIDYKEIEVEEVVGRGAFGVVCKAKWRAKDVAIKQIESESERKAFIVELRQLSRVNHPNIVKLYGACLNPVCLVMEYAEGGSLYNVLHGAEPLPYYTAAHAMSWCLQCSQGVAYLHSMQPKALIHRDLKPPNLLLVAGGTVLKICDFGTACDIQTHMTNNKGSAAWMAPEVFEGSNYSEKCDVFSWGIILWEVITRRKPFDEIGGPAFRIMWAVHNGTRPPLIKNLPKPIESLMTRCWSKDPSQRPSMEEIVKIMTHLMRYFPGADEPLQYPCQYSDEGQSNSATSTGSFMDIASTNTSNKSDTNMEQVPATNDTIKRLESKLLKNQAKQQSESGRLSLGASRGSSVESLPPTSEGKRMSADMSEIEARIAATTAYSKPKRGHRKTASFGNILDVPEIVISGNGQPRRRSIQDLTVTGTEPGQVSSRSSSPSVRMITTSGPTSEKPTRSHPWTPDDSTDTNGSDNSIPMAYLTLDHQLQPLAPCPNSKESMAVFEQHCKMAQEYMKVQTEIALLLQRKQELVAELDQDEKDQQNTSRLVQEHKKLLDENKSLSTYYQQCKKQLEVIRSQQQKRQGTS
- binding [2]: binds
- binding [3]: binds

B4: endogenous CYPJ (protein, UniProt Q9H2H8 1-161)
chain: MSVTLHTDVGDIKIEVFCERTPKTCENFLALCASNYYNGCIFHRNIKGFMVQTGDPTGTGRGGNSIWGKKFEDEYSEYLKHNVRGVVSMANNGPNTNGSQFFITYGKQPHLDMKYTVFGKVIDGLETLDELEKLPVNEKTYRPLNDVHIKDITIHANPFAQ
- binding [11]: binds
- binding [12]: binds
